{"source": "the supplement of paper PMC11417369", "note": "This is one part of the list."}
{"system": "PfHDP1 homeodomain (GST-tagged)", "experiment": "gcPBM binding intensity (ln(normalized median fluorescence intensity)); higher = stronger DNA binding", "outline": "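Binding intensity values are the highest Masliner-normalised natural-log median intensity among replicate spots of either probe orientation. The binding step lasted 1 h in 1× PBS with 1% milk, 0.2 mg/ml BSA, 0.5% salmon testes DNA and 0.03% Triton X-100, using GST-tagged P. falciparum DNA-binding domains expressed in E. coli on an Agilent 4 × 180k array of primer-extended double-stranded 36-bp intergenic genomic probes plus negative controls. Alexa488 anti-GST antibody and a 488 nm scan detected bound protein.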"}
{"sequence": "TATTTTTTTAATAACTGTACTTTTTTGTCAAATGGA [XGTACX_site4179]", "gcPBM binding intensity (ln)": 6.18}
{"sequence": "AATGTTTTTGTGAGATGTATAAATTTTATTTTATTT [XGTACX_negctrl_site413]", "gcPBM binding intensity (ln)": 6.5}
{"sequence": "AAAAAAATAATGTACACACACATATAGGTTTATATA [CACACA_site192]", "gcPBM binding intensity (ln)": 6.48}
{"sequence": "TAAGTTTTGTTCTTTTGTACATATAAGTATAGATCG [XGTACX_site4735]", "gcPBM binding intensity (ln)": 6.4}
{"sequence": "TTGGGCATAATGTCATGTACACAAATAATTCTTTAT [XGTACX_site861]", "gcPBM binding intensity (ln)": 6.47}
{"sequence": "ATATATGGAGCTTATACACACTTTTATATTTTAACA [CACACA_site7757]", "gcPBM binding intensity (ln)": 6.97}
{"sequence": "AAACGTGTGTATAATAGTACATAATTATAACGTAAT [XGTACX_site421]", "gcPBM binding intensity (ln)": 6.77}
{"sequence": "AAATTTGGCAAACACACACACACACCCACAGAGACA [CACACA_site4490]", "gcPBM binding intensity (ln)": 6.82}
{"sequence": "CGTATTTTTGGACATGCATGTACAAATAATCTTATG [TGCATGCA_site973]", "gcPBM binding intensity (ln)": 6.51}
{"sequence": "TATATAACCTATAGCACACATATATAATATATATTA [CACACA_site1834]", "gcPBM binding intensity (ln)": 6.94}
{"sequence": "TTCTATTCAAATGCAAAATTATTAAATAAAAAATAA [GTGCAC_negctrl_site708]", "gcPBM binding intensity (ln)": 6.75}
{"sequence": "TTATTTTTTTTAAATTGTACAAGGAACAGTGAAAAA [XGTACX_site4380]", "gcPBM binding intensity (ln)": 7.03}
{"sequence": "TAAATGTCTTCAATGAAGTGGAAATGCTGTTATATA [CACACA_negctrl_site1155]", "gcPBM binding intensity (ln)": 6.4}
{"sequence": "TTTGTGTGTACGCGTGTGCACATTTTTTTTTTTTTT", "gcPBM binding intensity (ln)": 9.58}
{"sequence": "ATGTATGAATTACATAGTACATAAGAAAAAATGAAG [XGTACX_site5942]", "gcPBM binding intensity (ln)": 7.08}
{"sequence": "GTTTTCATCCAAAAAAGTACATTTATTTTTATACGA [XGTACX_site1039]", "gcPBM binding intensity (ln)": 6.31}
{"sequence": "GTAGTGGTTGAATATACACACATATATAAATAAATA [CACACA_site7282]", "gcPBM binding intensity (ln)": 6.58}
{"sequence": "AAATATAAAGTGCACACACACAAAAAAAGAAAAAAA [CACACA_site6452]", "gcPBM binding intensity (ln)": 8.92}
{"sequence": "GGAAAATCTTTATAATGTACATTATGATTATATAAT [XGTACX_site6256]", "gcPBM binding intensity (ln)": 6.72}
{"sequence": "TATAAATTAAAATGTGTGCACTAAATTGAAATAGAA", "gcPBM binding intensity (ln)": 10.6}
{"sequence": "ATATATATATATAATAGTACATATATTTTTATTGGT [XGTACX_site711]", "gcPBM binding intensity (ln)": 8.97}
{"sequence": "TAACCTAAAATAACTACACACACATAAAAAAAAAAA [CACACA_site8807]", "gcPBM binding intensity (ln)": 6.58}
{"sequence": "ATATTTTTTACAAATTGTACATTTTTACAATTATTA [XGTACX_site7496]", "gcPBM binding intensity (ln)": 6.47}
{"sequence": "TCACTTAATATTTAATGTACATAAGGTTCTTGTGCC [XGTACX_site1822]", "gcPBM binding intensity (ln)": 6.52}
{"sequence": "TTAAAATATGAATAATGTACAAGAAATTTTATTAAT [XGTACX_site6314]", "gcPBM binding intensity (ln)": 6.48}
{"sequence": "TTAACTTAAGGAGAGTGTACAAATAATAAAATATCT [XGTACX_site4118]", "gcPBM binding intensity (ln)": 6.57}
{"sequence": "ATTATTACATTTTTATGTACATATCAAATTTATACA [XGTACX_site7332]", "gcPBM binding intensity (ln)": 6.42}
{"sequence": "AAAAAAAATTTATGGGGTACATATTATAATATTATA [XGTACX_site3395]", "gcPBM binding intensity (ln)": 6.6}
{"sequence": "TTATATAACATTATTTGTACATATAAAATATGGATG [XGTACX_site8526]", "gcPBM binding intensity (ln)": 6.15}
{"sequence": "ATATCATGTTAAGATTGTACATATATATAATATATA [XGTACX_site7626]", "gcPBM binding intensity (ln)": 6.47}
{"sequence": "AATAAATTGGTATGTTGTACAAAGTAACCATCGATT [XGTACX_site2823]", "gcPBM binding intensity (ln)": 6.68}
{"sequence": "TGCAATTTAATATGAGTGCATATATTGAGAAAATAC", "gcPBM binding intensity (ln)": 9.36}
{"sequence": "AAAGAAATTATTTGTTGTACATATGTTATTTTTTTT [XGTACX_site7570]", "gcPBM binding intensity (ln)": 6.39}
{"sequence": "AAGGATATAACATACACACACACACCCATATATATA [CACACA_site4142]", "gcPBM binding intensity (ln)": 7.01}
{"sequence": "TAAAACCTTTAAAATACATGCAGCATATATAAGTAA [TGCATGCA_site181]", "gcPBM binding intensity (ln)": 6.27}
{"sequence": "ATTCATAATTTATTATGTACATATATATAATATATT [XGTACX_site1711]", "gcPBM binding intensity (ln)": 6.26}
{"sequence": "AAATAACAAATTTTTAAAATGTATATATATATATAT [TGCATGCA_negctrl_site219]", "gcPBM binding intensity (ln)": 9.44}
{"sequence": "TATATATGGGTAACCTTTTTTTTTTTTTTTCGAACA [CACACA_negctrl_site1303]", "gcPBM binding intensity (ln)": 6.02}
{"sequence": "AAAAAAAATTTTAATTGTACAAAAAAAAAAAATATA [XGTACX_site2259]", "gcPBM binding intensity (ln)": 6.46}
{"sequence": "AAATAAATTGATTCAACACACACATATGTAGGAAGT [CACACA_site9068]", "gcPBM binding intensity (ln)": 6.86}
{"sequence": "AATTTTTTTTGTCTCTGTACTTATAAAATATATATG [XGTACX_site4742]", "gcPBM binding intensity (ln)": 6.43}
{"sequence": "TTTTTTTTTTTCAAGCGTACAAAAAATATATTTAAA [XGTACX_site5327]", "gcPBM binding intensity (ln)": 6.29}
{"sequence": "CACCCACACCAACACACACACATATATATATATATA [CACACA_site362]", "gcPBM binding intensity (ln)": 9.27}
{"sequence": "TAAATATATATATATAGTACAATATAATTATGATAT [XGTACX_site258]", "gcPBM binding intensity (ln)": 6.78}
{"sequence": "CTTATTTACTATTTTTCACACATTACAGATAAACAA [CACACA_site6095]", "gcPBM binding intensity (ln)": 6.78}
